The supplement of paper PMC11417369
The list shows a part of the results.

tested on: PfAP2-HC AP2 domain (GST-tagged); assay: gcPBM binding intensity (ln(normalized median fluorescence intensity)); higher = stronger DNA binding
Outline: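 The highest Masliner-normalised natural-log median intensity across replicate spots of either probe orientation is reported as binding intensity. GST-tagged P. falciparum DNA-binding domains expressed in E. coli were applied for 1 h to an Agilent 4 × 180k array of primer-extended double-stranded 36-bp intergenic genomic probes plus negative controls, and bound protein was detected with Alexa488 anti-GST antibody and scanned at 488 nm.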

Row | Sequence | gcPBM binding intensity (ln)
1 | AAAAATAGTCTTCTTGCACTTTTTAATTTATTTTAA [CACACA_negctrl_site1322] | 9.35
2 | TGATTATCCTATATATATTTCATAATGGAAAAAAAT [TGCATGCA_negctrl_site444] | 9.15
3 | AATGTGGTATTTACAAAAAGGCTTTATACTTAAAAA [XGTACX_negctrl_site566] | 9.27
4 | CTTTTCATCTTCTTAACACACAAAAAAAAAAAAAAA [CACACA_site3886] | 9.24
5 | AAAATTCAGCGAAAGGGTACATATGTGTAAGGGTAA [XGTACX_site8205] | 10
6 | TATATTTATATACCAACACACATACATATTTATATA [CACACA_site6931] | 10
7 | CTATTATATCAGTAGACACACATATAACATTTATAT [CACACA_site141] | 9.87
8 | AATGTGCTCGCTATTACACACTCATTGGGATAAAAT [CACACA_site8627] | 9.61
9 | AGTAACAATTATTATGCATGTACAAATAATCATTTT [TGCATGCA_site867] | 9.71
10 | ATCTTATATTATCACACACACACGCACAAAACAGAA [CACACA_site1463] | 10.3
11 | TTTATTAAACTTGACACACACACACCCACATATATA [CACACA_site760] | 10.2
12 | ATATTATATAGAAACACACATACACATGTAAATATA [CACACA_site2037] | 10.1
13 | ATGGATTTTACCATAGCACACATATATGAATATTTT [CACACA_site8535] | 9.7
14 | ATATAGAAAATGCATACACACTTTATATATATATTT [CACACA_site4658] | 9.9
15 | TAATTATTTCGTATATTTGAATGGTACATGCTTATA [CACACA_negctrl_site1178] | 9.48
16 | ATTCATATCTACTTCACACACATTTGATCATTCAAA [CACACA_site7207] | 9.98
17 | ATAGTATTTTTTATTACACACAAATAAAAAGAAAAA [CACACA_site2087] | 9.74
18 | ATGAAACAGTAACATTGTACTTTTACAAAAAAATAA [XGTACX_site806] | 9.61
19 | AAAATCTATATTAACACACACACAAAAAAAAAAAAA [CACACA_site6738] | 10.6
20 | TTTAAAAAAAATATGTGTACTTAATATTTTCATATA [XGTACX_site7421] | 9.34
21 | TACATATAAATAATAACACACACCTAGGTACATGGA [CACACA_site838] | 10.4
22 | CATACACAGAAACACACACACATATATATATATATA [CACACA_site4519] | 10.2

Row | Sequence | gcPBM binding intensity (ln)
23 | AGAAAGGAGGAAATAAAAGGACTTCTTTTTTTATAT [CACACA_negctrl_site810] | 9.4
24 | TTTCATTTCACAGACACACACACACCCTATATTTCC [CACACA_site3906] | 11.2
25 | ATATATTTTATATAGTGTACTTTAATTTTTTTTTTT [XGTACX_site5550] | 9.47
26 | ATTTTTTTTTTTTTTGAACACACATTATTAATTTTT [CACACA_site7990] | 9.94
27 | ATAAATAAAACAAAATGTACAAATATTCATATATTC [XGTACX_site1307] | 9.8
28 | ATATATATATATGTTAGTACTTATATTGAAATGGTA [XGTACX_site1406] | 9.67
29 | TTATTTACCTATTATAGTACATATAATTAATATAAT [XGTACX_site5724] | 9.6
30 | ATCTTTCGTACATGTACACACAGAAAAAAAAAAAAA [CACACA_site2502] | 9.64
31 | GTTCCCATAAATAAATGTACATATTATATATATATA [XGTACX_site3242] | 9.68
32 | GTGTAATCATATAAGGGTACAAAAAATGTCTAACAA [XGTACX_site8122] | 9.63
33 | GTAAAAATTTCATATTCACACACAAAAAAAAAAAAT [CACACA_site8457] | 10.5
34 | TTACTAAACTTATATGTACACACATATAACATTAAT [CACACA_site8710] | 10.2
35 | TAAAAAAAAAAAAAAAGTACCCATACTATATTACAT [XGTACX_site946] | 9.54
36 | AAGAATTTTACAAAATGTACTTATGTTTTGTTTTAC [XGTACX_site5632] | 9.79
37 | AGTAGTCTGGAGAAGAGTACATAGTATCTGATAACC [XGTACX_site2044] | 9.73
38 | TAATTAATATATTTTTGTACTTATATATTTGCGTAT [XGTACX_site340] | 9.71
39 | AATCCACAAAGACACACACACACATATATATATATA [CACACA_site1269] | 10.8
40 | AAAATTCTTCGGGGGAGTACAAGGATATTCTACGTT [XGTACX_site3974] | 10.2
41 | TTATAATATATATGTGGTACTTATTTATTTATTTAT [XGTACX_site7572] | 9.7
42 | ATTTTTGATTTTAAAAGTACATAAGTATACTATTTA [XGTACX_site7162] | 9.55
43 | TTTTGTAATTTTGTATGTACACATTAAAGTAATATG [XGTACX_site2401] | 9.66
44 | ATAAATAAATTTATACGTACACATAATATATATATA [XGTACX_site4634] | 9.7

Row | Sequence | gcPBM binding intensity (ln)
45 | ATTGAAAATTATTTACCTTCTTTGAAAGAACAAATG [CACACA_negctrl_site1736] | 9.41
46 | AAAAATAAAATGATGGTGCACATAAAGTATGGTTAC | 10.2
47 | TAAATAATCGCATAATGTACATATAATTTTTTTTTT [XGTACX_site4880] | 9.51
48 | AAAATTTTTTTTATTTGTACACAATTCGATACATAA [XGTACX_site4804] | 9.58
49 | GCTTGGATATATTAATGTACTTATATATTATGTTGT [XGTACX_site3768] | 9.82
50 | CCAATTCAAATATGCACACAAATTTGAAAACGATTA [CACACA_site3607] | 9.71
51 | CTTTTGCCCAAAAAGGTACACACCACAATGTACATA [CACACA_site809] | 9.6
52 | GTTAATATACATAAACGTACAGAATTATTATGAGTT [XGTACX_site5185] | 9.72
53 | TTTGTTGTTGTGAAACGTACTCATAGGATGTTGTAT [XGTACX_site5716] | 9.56
54 | ATATTTTCAATGTTCACACATACACAAAAAAAAAAA [CACACA_site6077] | 9.7
55 | AAAGATGGAGTGATATGTACTGATATATTATTATAT [XGTACX_site6500] | 9.77
56 | AAGCATAAAGTATATAGTACATATATATATATATAT [XGTACX_site2945] | 9.59
57 | ATTAAAAAATCCATAGTGCACTACGATAGGTTCCGA [GTGCAC_site9463] | 9.7
58 | TTTTTTATTGTGATACGTATATTATTTTATGATAAA [CACACA_negctrl_site1591] | 9.59
59 | TAAAAATGTAAACACACACACATAAATATATTTTAT [CACACA_site5397] | 10.3
60 | ATATAGTAAAGTTATACACACATGAATTTTCCCATA [CACACA_site7457] | 9.86
61 | ATATTTTAATTATAAAGTACATAAAAATATATAAAC [XGTACX_site6705] | 9.72
62 | AAAAAAGAAACAATCGCATGCAATGTTAATGTACAT [TGCATGCA_site395] | 10
63 | TACGCAAAATAAAATCAAAATATAAGGAAAAAAAAA [TGCATGCA_negctrl_site578] | 9.55
64 | AGGTGTCATATATGCACACAAAAGTAACACGCACCT [CACACA_site472] | 10.1
65 | TTTTTTAAACGTTTAAATAATTAAATATAAATAAAT [CACACA_negctrl_site1567] | 9.19
66 | TGAACAACTATTACTGCACACATTCTTACACTATAT [CACACA_site4533] | 10.6

Row | Sequence | gcPBM binding intensity (ln)
67 | AAAAAAAAAAAAGGTACTACACACTATTATCAATAG [XGTACX_site161] | 9.76
68 | GATAATTTTTGCATATGTACTTAAAAATTAAAAATT [XGTACX_site7037] | 9.48
69 | GACCTACAAAAAGGCACACATATACTCATACATACA [CACACA_site5232] | 9.82
70 | ACATTTATTTTGAATGGTACACTATTATTATGAAAT [XGTACX_site4384] | 9.52
71 | GTGTAATGCTTATCGGTGCATATATATATATATATA | 9.68
72 | TATCTCTACAAAATTTTATTCATTATTCATGTTATA [XGTACX_negctrl_site452] | 9.5
73 | ACAAAGAAATATAATACACACAAGAATATATTGGAT [CACACA_site3901] | 10.2
74 | TAATATTTATCAAGTCGTACATAAAATGTATAATAA [XGTACX_site1103] | 9.63
75 | GTACAATAAGATGTAGCATGCCGTACCTTCACTACG [TGCATGCA_site235] | 9.6
76 | ATACTGTATGAAAGCACACATACTTATTACTAACAT [CACACA_site4164] | 9.8
77 | TATACATATTTGTATTGTACATAAACTAAATCTTCA [XGTACX_site610] | 9.45
78 | CAAATAACAAAATAATGTACATTTATACTTTTTTTT [XGTACX_site943] | 9.61
79 | AAATAGAGAAATACAAGTACATACTAAACCTATCTA [XGTACX_site1334] | 9.87
80 | AGGATTATATATTAATGTACCCGCGTTAATTTTTTT [XGTACX_site2878] | 9.76
81 | TCTAATAAAATAAATACATGCATACATACATACATA [TGCATGCA_site895] | 9.62
82 | TTATTAAATGAAAAATGTACATATAAATGATTATAT [XGTACX_site2788] | 9.55
83 | GAAATGTGTAGACACGCACACACAAAAAAATATATA [CACACA_site2912] | 10.2
84 | ATGTATAAACATATATGTACTTAAATAAAATGTTAA [XGTACX_site4044] | 9.86
85 | AAAAATAAAAAAATAATAAAATAAAAAATAAAAAAT [TGCATGCA_negctrl_site89] | 9.8
86 | TAAAAAAACATATATTGTACGGAGATAATAATTTTT [XGTACX_site2946] | 9.64
87 | TATACTGTCAATTCTACACACCATAGGGGGAGCATA [CACACA_site1875] | 10.1
88 | CACCAATTCATATGCACACACATCTGCATATTATAT [CACACA_site1773] | 10.2
